# The campaign covered roughly 310,000 compounds. About 14,000 (4.5%) showed an effect of 50% or more. The effect is printed as a negative number. This is one part of the list.
# Molecular target: human ether-à-go-go-related gene (hERG) potassium channel (human, UniProt Q12809)
# Test: primary screen, population patch clamp on CHO cells stably expressing hERG
# 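Further: peak tail current of the secondary pulse compared with the same well before compound.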
# Chain of human ether-à-go-go-related gene (hERG) potassium channel (Q12809 whole entry, looked up): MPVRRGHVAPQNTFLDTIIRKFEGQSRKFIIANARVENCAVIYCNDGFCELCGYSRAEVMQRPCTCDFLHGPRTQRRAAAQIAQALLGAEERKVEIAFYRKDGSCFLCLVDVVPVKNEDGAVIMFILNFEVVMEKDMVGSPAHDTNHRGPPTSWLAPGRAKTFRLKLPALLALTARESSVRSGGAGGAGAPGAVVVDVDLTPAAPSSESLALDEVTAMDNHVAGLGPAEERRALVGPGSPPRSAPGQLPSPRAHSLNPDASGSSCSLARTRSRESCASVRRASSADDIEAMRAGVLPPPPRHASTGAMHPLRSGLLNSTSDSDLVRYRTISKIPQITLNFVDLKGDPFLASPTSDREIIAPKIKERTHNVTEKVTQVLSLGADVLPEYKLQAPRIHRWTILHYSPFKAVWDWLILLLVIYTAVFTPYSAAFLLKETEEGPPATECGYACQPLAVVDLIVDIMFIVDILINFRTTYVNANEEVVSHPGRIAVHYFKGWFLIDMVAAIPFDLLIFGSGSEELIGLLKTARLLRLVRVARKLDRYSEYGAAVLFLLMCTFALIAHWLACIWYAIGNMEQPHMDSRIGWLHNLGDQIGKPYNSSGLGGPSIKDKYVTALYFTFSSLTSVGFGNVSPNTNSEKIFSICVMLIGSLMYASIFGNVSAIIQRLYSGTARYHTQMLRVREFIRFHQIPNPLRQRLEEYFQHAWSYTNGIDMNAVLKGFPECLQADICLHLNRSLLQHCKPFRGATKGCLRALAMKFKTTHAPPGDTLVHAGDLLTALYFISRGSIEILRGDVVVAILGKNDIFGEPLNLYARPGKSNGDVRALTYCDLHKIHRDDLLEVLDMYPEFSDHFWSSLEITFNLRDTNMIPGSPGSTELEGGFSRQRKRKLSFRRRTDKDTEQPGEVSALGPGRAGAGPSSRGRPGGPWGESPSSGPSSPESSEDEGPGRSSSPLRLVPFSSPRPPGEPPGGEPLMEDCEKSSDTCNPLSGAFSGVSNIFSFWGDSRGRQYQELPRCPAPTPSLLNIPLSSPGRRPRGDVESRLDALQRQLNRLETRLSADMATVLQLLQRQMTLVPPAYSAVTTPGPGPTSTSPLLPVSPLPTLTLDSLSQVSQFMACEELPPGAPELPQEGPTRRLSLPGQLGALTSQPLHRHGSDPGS
row,SMILES,"hERG current change (%, negative = inhibition) at 10uM [%]"
1,CCOc1ccc(C(=O)OCCN(CC)CC)cc1.Cl,-44.8
2,O=C(COC(=O)c1ccc(Br)o1)NCc1cccs1,-4.11
3,CCC1(c2ccc(F)cc2)NC(=O)N(CC(=O)NCc2ccc(F)cc2)C1=O (stereo not drawn),-14
4,CN(c1c[nH]c(=O)[nH]c1=O)C1CCCCC1,36.5
5,CNS(=O)(=O)c1ccc(NC(=O)c2cncc(Br)c2)cc1,12.1
6,c1ccc(-c2nc(-c3ccco3)n3ccccc23)cc1,10.3
7,CS(=O)(=O)N1CCN(C(=O)CCC2CCCC2)CC1,14.1
8,O=C(CN1C(=O)/C(=C2\SC(=S)N(CCS(=O)(=O)O)C2=O)c2ccccc21)Nc1cccc(Br)c1,-73.1
9,COC(=O)c1ccc(NC(=O)Nc2ccccc2F)cc1,17
10,O=[N+]([O-])c1cccc(N/N=C/c2cccc(O)c2O)c1,16.7
11,C=CCNC(=O)CC1Nc2c3ccccc3nc(=S)n2C1=O (stereo not drawn),14.7
12,NC(=O)CC(NC(=O)c1ccc(Br)cc1)c1ccc(NCc2ccc(F)cc2)c([N+](=O)[O-])c1 (stereo not drawn),-1.49
13,COCC(=O)NCCc1nc2ccccc2[nH]1,2.06
14,O=C(Nc1ccc(N2CCOCC2)c(Cl)c1)c1ccc(S(=O)(=O)N2CCOCC2)cc1,-25.7
15,Fc1ccc(NC(=S)N2CCN(c3cccc(C(F)(F)F)c3)CC2)cc1,13.7
16,CC(C)(C)OC(=O)NNC(=O)c1cccs1,4.42
17,Cc1cc(C)nc(SCC(=O)Nc2nonc2N)n1,23.4
18,CCOC(=O)Cc1nc(-c2ccc(Cl)cc2)n[nH]1,16.2
19,COc1ccccc1N1CCN(C(=O)c2sc3nc(C)nc(N4CCN(c5ccccn5)CC4)c3c2C)CC1,-2.2
20,COc1ccc(S(=O)(=O)N2CCCC2CNC(=O)C(=O)NCc2ccco2)cc1 (stereo not drawn),-3.76
21,COc1cc(CN2CCCC(C(=O)c3sccc3C)C2)cc(Cl)c1O (stereo not drawn),-53.8
22,COC(=O)[C@@]1(Cc2ccc(F)cc2)[C@H]2c3cc(C(=O)N(C)C)n(Cc4ccccn4)c3C[C@H]2CN1C(=O)c1ccccc1,-53.4

row,SMILES,"hERG current change (%, negative = inhibition) at 10uM [%]"
1,O=C(Nc1cccc(F)c1)NC1CCCCC1,7.8
2,CCc1ccccc1NC(=O)CNC(=O)c1cc(C2CC2)nn1-c1ccccc1,-28.8
3,C=CCNCCCCOc1ccccc1.O=C(O)C(=O)O,0.6
4,CN(C(=O)C1CCOC1)c1nnc(-c2ccccn2)s1 (stereo not drawn),-3.49
5,Cc1ccc(Cl)cc1N1CCN(CC(O)COC(C)C)CC1.Cl (stereo not drawn),-63.7
6,CCOC(=O)c1[nH]c(C)c(C(=O)OCC(=O)NC(=O)NC(C)(C)C)c1C,21.3
7,CC(C)Cc1cc(C(C)(C)C)ccc1OC(=S)N(C)C,10.2
8,CCCCc1c(O)nc2sccn2c1=O,-2
9,CN1CCN(Cc2cn(C)nc2-c2ccccc2F)CC1c1ccccc1 (stereo not drawn),3.76
10,O=P1(NCCCl)OCCCN1CCCl (stereo not drawn),8.5
11,N#Cc1ccc(C2=NC(C(F)(F)F)(C(F)(F)F)c3c(n(Cc4ccco4)c(=O)[nH]c3=O)N2)cc1,3.82
12,COc1ccc(CNC(=O)COC(=O)c2ccc3c(c2)OCCO3)cc1,14.8
13,O=C(Nc1cccc2c1CCCC2)c1ccco1,-7.45
14,CC(C(=O)NCCc1ccc(F)cc1)N1CCN(Cc2ccccc2)CC1 (stereo not drawn),-5.88
15,O=[N+]([O-])c1ccc2[nH]c3c(c2c1)CCCC3O (stereo not drawn),5.53
16,C[n+]1c(-c2ccccc2)cc(CCCCc2cc(-c3ccccc3)[n+](C)c(-c3ccccc3)c2)cc1-c1ccccc1.[O-][Cl+3]([O-])([O-])[O-],-30.6
17,O=C(NCCN1CCOCC1)C1CCC(=O)N1Cc1ccccc1Cl (stereo not drawn),1.21
18,CCOC(=O)N[C@H](Cc1c[nH]c2ccccc12)C(=O)NC1CC1,3.42
19,Cn1[nH]c(-c2ccccc2)c(/C=N/O)c1=O,-15.1
20,O=S(=O)(c1ccccc1)c1nc(-c2ccco2)oc1NCc1cccnc1,-20.1
21,CC(C)(O)c1[nH]c2cc(F)ccc2c1C(C)(C)O,7.32
22,CC(=O)NC(CC(=O)OCC(=O)N1CCN(S(=O)(=O)c2ccc(Cl)cc2)CC1)c1ccccc1 (stereo not drawn),-9.51

row,SMILES,"hERG current change (%, negative = inhibition) at 10uM [%]"
1,CCOC(=O)c1c(C)[nH]c(C)c1C(=O)COC(=O)c1cccc(C)c1O,-2.67
2,CCOc1ccccc1C(=O)Nc1ccc2c(c1)C(=O)NC2=O,18.4
3,CN(CC(=O)Nc1ccccc1Br)c1ncnc2sccc12,-0.69
4,Cc1nc(SCC(=O)Nc2cc(S(=O)(=O)N3CCOCC3)ccc2Cl)nc(C)c1C,-48.1
5,Cc1c(CN(C)C)c2c(n1C)C(=O)c1ccc(Br)cc1-2.Cl,-37.3
6,O=[N+]([O-])c1cc(O)c(O)c([N+](=O)[O-])c1,-6.65
7,CCOC(=O)C1(CCOc2ccccc2)CCN(Cc2ccc(CO)o2)CC1,-73.8
8,CCOC(=S)SCC(=O)N1CCc2ccccc2C1C1C(=O)CC(C)(C)CC1=O (stereo not drawn),4.98
9,CCC(Cc1ccccc1)NCc1c(C(=O)O)c(C)n(Cc2ccccc2)c1C (stereo not drawn),30.4
10,CC1CCCCC1NC(=O)CNC(=O)c1cccs1 (stereo not drawn),4.7
11,Cc1nn(CC(=O)NCC2CCCO2)c(=O)c2cc3ccccc3n12 (stereo not drawn),15.2
12,CC(C)(C)C(=O)NC1CCN(CC(=O)Nc2ccc3c(c2)OCO3)CC1,15.8
13,Cc1ccc(-n2[nH]c(C)c(C=Nc3ccc(S(=O)(=O)Nc4nccs4)cc3)c2=O)c(C)c1,-35
14,CCOC(=O)C1CCN(/C=C2/C(=O)NC(=S)N(c3ccccc3F)C2=O)CC1,3.35
15,O=C(O)C1CCN(C(=O)CSc2nc3cc(Cl)ccc3c(=O)n2Cc2ccccc2)CC1,2.54
16,O=C(CSc1ccccn1)Nc1ccc2c(c1)CCC2,-3.64
17,O=C(N/N=C\c1ccc(O)c([N+](=O)[O-])c1)C1COc2ccccc2O1 (stereo not drawn),-4.56
18,COC(=O)CN1C(=S)N(c2ccc(OC)cc2)C(=O)/C1=C/c1ccc(OC)cc1,10.2
19,Cc1occc1C(=O)Nc1c(Cl)cccc1Cl,-1.63
20,O=C(COc1ccccc1)Nc1cccc(-c2nc3cc4ccccc4cc3[nH]2)c1,-9.82
21,COc1ccc(C(=O)N/N=C/C23CC[C@@H](O)CC2(O)CC[C@@H]2[C@@H]3CCC3(C)C(C4=CC(=O)OC4)CCC23O)cc1 (stereo partly drawn),0.942
22,CCOc1ccc(/C=N/NC(=O)C2CC2)c(OCC)c1,2.21

row,SMILES,"hERG current change (%, negative = inhibition) at 10uM [%]"
1,COc1ccc(-c2cc(C(=O)N/N=C(\C)c3ccco3)c3ccccc3n2)c(OC)c1,18
2,CCCCC(=O)Nc1ccc(C(=O)Nc2ccc(S(=O)(=O)Nc3ccc(C)cc3)cc2)cc1,9.5
3,Fc1ccc(NCc2nnc(SCc3nnc(-c4ccccc4)o3)n2Cc2ccccc2)cc1,-46
4,CCN(CC(=O)Nc1cc(C)nn1-c1nc(C)cc(C)n1)Cc1ccccc1,-42.8
5,CCn1cc(C(=O)Nc2sc(C)c(C)c2C(=O)OC)cn1,-12.6
6,COc1ccc(CCN(C)C(=O)C2CCCN(Cc3ccc(OC)c(OC)c3)C2)cc1OC.O=C(O)C(=O)O (stereo not drawn),-3.31
7,CC(C)CCNC(=O)COC(=O)c1cc(Br)c(Br)s1,13.7
8,O=C(CN1CCN(c2cccc(Cl)c2)CC1)N1CCCC1,-8.34
9,NC(=O)COc1c(-c2ccccc2)oc2ccccc2c1=O,-12.5
10,Cc1occc1C(=O)NNC(=O)c1cccc(F)c1,15
11,N#Cc1cc[n+](CC(=O)c2ccc(NC(=O)c3ccccc3)cc2)cc1.[Br-],-14.6
12,CCCCCCC(=O)N/N=C(\C)Cc1ccccc1,3.25
13,O=C(c1c(F)cccc1F)N1CCCC(c2nc(-c3cccs3)no2)C1 (stereo not drawn),-20.9
14,C[C@H]1C[C@H]2[C@@H]3CCC4=CC(=O)C=C[C@]4(C)[C@@]3(F)[C@@H](O)C[C@]2(C)[C@@]1(O)C(=O)CO,-1.56
15,CN(c1ccccc1)S(=O)(=O)c1ccc(Cl)c(C(=O)OCC(=O)NC2CCS(=O)(=O)C2)c1 (stereo not drawn),-9.5
16,Fc1ccc(-c2cnc3n2CCCCC3)cc1,-7.09
17,C/C(=N\NC(=O)c1c[nH]c2ccccc12)c1ccco1,-0.529
18,COc1ccccc1NC(=O)COc1ccc(Br)cc1CO,-4.58
19,CCOc1ccc(NS(=O)(=O)c2ccc(NC(=O)[C@@H]3CCCC[C@@H]3C(=O)O)cc2)cc1,-4.25
20,O=C(CCN1C(=O)C2C3C=CC(C3)C2C1=O)Nc1c(F)cc(F)cc1Br (stereo not drawn),15.1
21,CN(C)N1C(N)=C(C#N)C(c2ccc(Br)cc2)C2=C1CCCC2=O (stereo not drawn),-47.1

# Reference: article PMC4336329 (PLoS ONE, 2015)
